± gives the uncertainty stated by the source. The sequences are guide strands of siRNAs; only the seed at positions 2 to 7 varies.
Key:
3LL = experiment: cell viability relative to siNT1 control; higher = less toxic; settings: concentration: 10 nM; 96 h; Mus musculus;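 also: Luminescence-based viability of cells reverse transfected in 384-well plates with lipid-complexed siRNAs built on a non-toxic 19mer backbone whose passenger strand carries 2′-O-methyl groups at positions 1 and 2, triplicates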
Description: (§1)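 Arrayed screen of 4096 siRNA duplexes, each carrying one of all possible 6mer seeds at guide-strand positions 2-7 in a fixed neutral 19mer scaffold (constant flanks: U at position 1, then ACAUGUAAACCA, plus a 3' AA overhang). The passenger strand is 2'-O-methylated at positions 1-2 so only the guide strand loads into RISC. Duplexes were reverse-transfected at 10 nM with RNAiMAX in triplicate in 384-well plates; viability was read by CellTiter-Glo ATP content 96 h after transfection. Values are % viability normalised to lipid-only wells (HeyA8, H460, M565) or to siNT1 (3LL).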

M565 = experiment: cell viability relative to lipid-only control; HeyA8 human ovarian and H460 human lung cancer; M565 mouse liver and 3LL mouse lung cancer; siNT1 is a non-toxic control siRNA; higher = less toxic; settings: concentration: 10 nM; 96 h; Mus musculus
Description: as §1

HeyA8 = experiment: as above; settings: concentration: 10 nM; 96 h; Homo sapiens
Description: as §1

H460 = experiment: as above; settings: concentration: 10 nM; 96 h; Homo sapiens
Description: as §1
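For cell viability relative to lipid-only control in this document: reverse lipid transfection in 384-well plates, in triplicate, of duplexes on a non-toxic 19mer backbone with passenger strand 2′-O-methylated at positions 1 and 2, luminescence viability read-out.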

Sequence | cell viability (3LL) | cell viability (M565) | cell viability (HeyA8) | cell viability (H460)
UAGUUGCACAUGUAAACCAAA | 12.6 ± 0.41% | 13.8 ± 2.1% | 5 ± 0.68% | 27.7 ± 7.5%
UAGUUGGACAUGUAAACCAAA | 19.1 ± 2.3% | 25.7 ± 7.7% | 27.8 ± 0.74% | 47.3 ± 9.7%
UAGUUGUACAUGUAAACCAAA | 21.1 ± 7% | 25.5 ± 4.4% | 13.9 ± 1.3% | 44 ± 7.3%
UAGUUUAACAUGUAAACCAAA | 93.5 ± 6.7% | 62.3 ± 5.8% | 70 ± 7.4% | 64.9 ± 7.5%
UAGUUUCACAUGUAAACCAAA | 75.9 ± 2.8% | 70.9 ± 21% | 26.6 ± 1.4% | 47.2 ± 11%
UAGUUUGACAUGUAAACCAAA | 78.6 ± 13% | 57.2 ± 4% | 67.4 ± 2.3% | 66 ± 6.7%
UAGUUUUACAUGUAAACCAAA | 96.5 ± 4.8% | 75.2 ± 9.6% | 64.6 ± 1.8% | 61.9 ± 5.1%
UAUAAAAACAUGUAAACCAAA | 103 ± 20% | 86.6 ± 9% | 103 ± 14% | 70.3 ± 10%
UAUAAACACAUGUAAACCAAA | 106 ± 6.3% | 88.5 ± 14% | 93.7 ± 6.1% | 66.3 ± 4.1%
UAUAAAGACAUGUAAACCAAA | 101 ± 19% | 85.8 ± 3.5% | 95 ± 5.8% | 77 ± 2.5%
UAUAAAUACAUGUAAACCAAA | 103 ± 20% | 88.8 ± 13% | 98.8 ± 9.8% | 75.7 ± 5.3%
UAUAACAACAUGUAAACCAAA | 99 ± 19% | 93.7 ± 20% | 98.5 ± 12% | 110 ± 12%
UAUAACCACAUGUAAACCAAA | 22 ± 2.7% | 13 ± 1.9% | 27.6 ± 3.3% | 63 ± 8.5%
UAUAACGACAUGUAAACCAAA | 103 ± 20% | 103 ± 4.7% | 96.6 ± 12% | 81 ± 9.6%
UAUAACUACAUGUAAACCAAA | 93.6 ± 15% | 87.6 ± 5.9% | 80.9 ± 11% | 78.3 ± 21%
UAUAAGAACAUGUAAACCAAA | 108 ± 21% | 86.9 ± 18% | 101 ± 12% | 91.3 ± 25%
UAUAAGCACAUGUAAACCAAA | 48.6 ± 6.8% | 91.3 ± 12% | 86.1 ± 13% | 55.9 ± 7.8%
UAUAAGGACAUGUAAACCAAA | 104 ± 15% | 89.9 ± 16% | 87.5 ± 8.3% | 80.6 ± 6.8%
UAUAAGUACAUGUAAACCAAA | 62.4 ± 16% | 48.8 ± 14% | 91.6 ± 9.8% | 76.8 ± 13%
UAUAAUAACAUGUAAACCAAA | 100 ± 14% | 77.5 ± 9.7% | 98.9 ± 9.1% | 83 ± 22%
UAUAAUCACAUGUAAACCAAA | 91.2 ± 14% | 65.3 ± 8.5% | 87.3 ± 6.2% | 86.5 ± 10%
UAUAAUGACAUGUAAACCAAA | 116 ± 23% | 90.1 ± 14% | 101 ± 14% | 93.7 ± 28%

Sequence | cell viability (3LL) | cell viability (M565) | cell viability (HeyA8) | cell viability (H460)
UAUAAUUACAUGUAAACCAAA | 98.5 ± 22% | 95.2 ± 14% | 99.2 ± 6.7% | 71 ± 5.9%
UAUACAAACAUGUAAACCAAA | 114 ± 13% | 110 ± 11% | 100 ± 9.2% | 73.6 ± 12%
UAUACACACAUGUAAACCAAA | 109 ± 11% | 77.9 ± 5.2% | 86.6 ± 6.3% | 61.6 ± 2.5%
UAUACAGACAUGUAAACCAAA | 111 ± 12% | 107 ± 17% | 100 ± 5.2% | 71.7 ± 8.5%
UAUACAUACAUGUAAACCAAA | 119 ± 20% | 116 ± 32% | 108 ± 7.9% | 102 ± 5%
UAUACCAACAUGUAAACCAAA | 102 ± 4.5% | 95.7 ± 13% | 95.6 ± 4.5% | 67.4 ± 4.5%
UAUACCCACAUGUAAACCAAA | 41.3 ± 2.9% | 48.9 ± 12% | 45.3 ± 0.35% | 42.9 ± 2.2%
UAUACCGACAUGUAAACCAAA | 114 ± 15% | 115 ± 12% | 95.3 ± 6.1% | 67.8 ± 6.9%
UAUACCUACAUGUAAACCAAA | 63.7 ± 15% | 101 ± 14% | 72.6 ± 4.9% | 65.2 ± 8.3%
UAUACGAACAUGUAAACCAAA | 115 ± 8.2% | 106 ± 5.6% | 99.9 ± 2.7% | 75.1 ± 15%
UAUACGCACAUGUAAACCAAA | 39.7 ± 2.5% | 109 ± 19% | 109 ± 7.7% | 76.2 ± 12%
UAUACGGACAUGUAAACCAAA | 119 ± 6.2% | 133 ± 1.5% | 98 ± 6.4% | 80.5 ± 8%
UAUACGUACAUGUAAACCAAA | 104.9 ± 1% | 97.8 ± 14% | 98.4 ± 3.7% | 94 ± 23%
UAUACUAACAUGUAAACCAAA | 106 ± 11% | 107 ± 15% | 93.7 ± 2% | 92.3 ± 18%
UAUACUCACAUGUAAACCAAA | 83.7 ± 10% | 52.9 ± 3.1% | 99.1 ± 8.7% | 67.6 ± 6.3%
UAUACUGACAUGUAAACCAAA | 107 ± 12% | 104 ± 5.7% | 104 ± 3.6% | 79.8 ± 12%
UAUACUUACAUGUAAACCAAA | 111 ± 9.3% | 73.9 ± 14% | 100 ± 4.4% | 66.3 ± 2.3%
UAUAGAAACAUGUAAACCAAA | 110 ± 9.6% | 93.7 ± 6.6% | 106 ± 3% | 82.4 ± 20%
UAUAGACACAUGUAAACCAAA | 82.9 ± 7% | 101 ± 14% | 96.5 ± 5.5% | 67.5 ± 1.4%
UAUAGAGACAUGUAAACCAAA | 122 ± 16% | 101 ± 14% | 106 ± 1.7% | 74.4 ± 8.4%
UAUAGAUACAUGUAAACCAAA | 107 ± 17% | 102 ± 10% | 90.4 ± 9.2% | 69.4 ± 4.9%
UAUAGCAACAUGUAAACCAAA | 117 ± 16% | 81.6 ± 9.3% | 101 ± 9.7% | 81.6 ± 9.3%

Source: the supplement of paper PMC6206098
